Measurements taken from the supplement of paper PMC4967469.

Key:
[1] = compound: O=c1[nH]c2ccccc2n1C1CCN(Cc2ccc(-c3[nH]c4cc5ncnc5cc4nc3-c3ccccc3)cc2)CC1 [AKT inhibitor VIII]; experiment: Viability of human cancer cell lines after 72 h of drug (GDSC screen); details: top dose inferred
Experimental: (§1)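 Human cancer cell lines in 384-well plates, medium with 10% serum, drug for 72 h over a 256-fold dose range (nine 2-fold or five 4-fold steps up to the top dose). Adherent lines were fixed and stained with the nucleic acid dye Syto60, suspension lines read with resazurin; signal relative to control wells, capped at 0 and 100%. One two-parameter sigmoid per drug and line, fitted in a mixed model over all curves with the slope shared within a line.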

[2] = compound: NC(=O)c1ncn([C@@H]2O[C@H](CO)[C@@H](O)[C@H]2O)c1N [AICAR]; experiment: as above; details: top dose 2000 µM; top dose inferred
Experimental: as §1

[3] = top dose 2.56 µM, screen: GDSC drug entry 171
[4] = top dose 10.24 µM, screen: GDSC drug entry 228

Row | Cell Line | AUC [1, 3] | IC50 [1, 3] | AUC [1, 4] | IC50 [1, 4] | AUC [2] | IC50 [2]
1 | 8-MG-BA (glioma, adherent) | 0.938 | > 2.56 µM | 0.92 | > 10.2 µM | 0.899 | > 2000 µM
2 | 22RV1 (prostate, adherent) | 0.876 | > 2.56 µM | 0.706 | 2.83 µM | 0.9 | > 2000 µM
3 | 42-MG-BA (glioma, adherent) | 0.939 | > 2.56 µM | 0.923 | > 10.2 µM | 0.867 | > 2000 µM
4 | 201T (lung adenocarcinoma, adherent) | 0.822 | 2.03 µM | 0.686 | 2.44 µM | 0.972 | > 2000 µM
5 | 451Lu (melanoma, adherent) | 0.965 | > 2.56 µM | 0.95 | > 10.2 µM | 0.926 | > 2000 µM
6 | 639-V (bladder, adherent) | 0.954 | > 2.56 µM | 0.983 | > 10.2 µM | 0.897 | 1830 µM
7 | 647-V (bladder, adherent) | 0.922 | > 2.56 µM | 0.921 | > 10.2 µM | 0.838 | 1360 µM
8 | 5637 (bladder, adherent) | 0.989 | > 2.56 µM | 0.895 | > 10.2 µM | 0.927 | > 2000 µM
9 | 8305C (thyroid, adherent) | 0.963 | > 2.56 µM | 0.959 | > 10.2 µM | 0.926 | > 2000 µM
10 | 8505C (thyroid, adherent) | 0.962 | > 2.56 µM | 0.942 | > 10.2 µM | 0.887 | > 2000 µM
11 | 23132-87 (stomach, adherent) | 0.704 | 0.616 µM | 0.721 | 2.77 µM | 0.939 | > 2000 µM
12 | A4-Fuk (B-cell lymphoma, suspension) | 0.837 | 1.82 µM | 0.767 | 3.95 µM | 0.623 | 276 µM
13 | A253 (head and neck, adherent) | 0.922 | > 2.56 µM | 0.937 | > 10.2 µM | 0.903 | > 2000 µM
14 | A375 (melanoma, adherent) | 0.973 | > 2.56 µM | 0.977 | > 10.2 µM | 0.888 | 1550 µM
15 | A427 (non-small cell lung carcinoma, adherent) | 0.895 | > 2.56 µM | 0.892 | > 10.2 µM | 0.941 | > 2000 µM
16 | A431 (skin, adherent) | 0.977 | > 2.56 µM | 0.809 | 5.07 µM | 0.859 | 1550 µM
17 | A549 (lung adenocarcinoma, adherent) |  |  |  |  | 0.898 | > 2000 µM
18 | A704 (kidney, adherent) | 0.973 | > 2.56 µM | 0.988 | > 10.2 µM | 0.903 | > 2000 µM
19 | A2058 (melanoma, adherent) | 0.983 | > 2.56 µM | 0.932 | > 10.2 µM | 0.893 | 1930 µM
20 | A2780 (ovary, semi-adherent) | 0.955 | > 2.56 µM | 0.768 | 3.96 µM | 0.874 | > 2000 µM
21 | ABC-1 (lung adenocarcinoma, adherent) | 0.913 | > 2.56 µM | 0.933 | > 10.2 µM | 0.956 | > 2000 µM
22 | ACHN (kidney, adherent) | 0.937 | > 2.56 µM | 0.922 | > 10.2 µM | 0.791 | 1040 µM
23 | AGS (stomach, adherent) | 0.928 | > 2.56 µM | 0.943 | > 10.2 µM | 0.943 | > 2000 µM
24 | AM-38 (glioma, semi-adherent) | 0.986 | > 2.56 µM | 0.824 | 6.24 µM | 0.761 | 724 µM
25 | AMO-1 (haematopoietic neoplasm, suspension) | 0.972 | > 2.56 µM | 0.827 | 5.09 µM | 0.753 | 585 µM
26 | AN3-CA (endometrium, adherent) | 0.79 | 1.26 µM | 0.826 | 7.01 µM | 0.902 | > 2000 µM

Row | Cell Line | AUC [1, 3] | IC50 [1, 3] | AUC [1, 4] | IC50 [1, 4] | AUC [2] | IC50 [2]
27 | ARH-77 (myeloma, suspension) | 0.966 | > 2.56 µM | 0.734 | 2.88 µM | 0.889 | > 2000 µM
28 | ASH-3 (thyroid, adherent) | 0.937 | > 2.56 µM | 0.988 | > 10.2 µM | 0.91 | > 2000 µM
29 | AU565 (breast, adherent) | 0.768 | 1.06 µM | 0.748 | 3.63 µM | 0.637 | 312 µM
30 | AsPC-1 (pancreas, adherent) | 0.944 | > 2.56 µM | 0.777 | 7.72 µM | 0.796 | 1870 µM
31 | BALL-1 (B-cell leukaemia, suspension) |  |  |  |  | 0.783 | 617 µM
32 | BB65-RCC (kidney, adherent) | 0.936 | > 2.56 µM | 0.954 | > 10.2 µM | 0.831 | 1530 µM
33 | BE2-M17 (neuroblastoma, adherent) | 0.986 | > 2.56 µM | 0.968 | > 10.2 µM | 0.842 | 1460 µM
34 | BE-13 (lymphoblastic leukaemia, suspension) | 0.951 | > 2.56 µM | 0.752 | 3.19 µM | 0.661 | 338 µM
35 | BFTC-905 (bladder, adherent) | 0.937 | > 2.56 µM | 0.939 | > 10.2 µM | 0.866 | 1380 µM
36 | BHT-101 (thyroid, adherent) | 0.881 | > 2.56 µM | 0.896 | > 10.2 µM | 0.9 | > 2000 µM
37 | BICR10 (head and neck, adherent) | 0.843 | 2.25 µM | 0.982 | > 10.2 µM | 0.804 | 1190 µM
38 | BT-549 (breast, adherent) |  |  |  |  | 0.916 | > 2000 µM
39 | CL-34 (large intestine, adherent) |  |  |  |  | 0.946 | > 2000 µM
40 | CL-40 (large intestine, adherent) |  |  |  |  | 0.96 | > 2000 µM
41 | CML-T1 (chronic myeloid leukaemia, suspension) |  |  |  |  | 0.685 | 372 µM
42 | CRO-AP2 (B-cell lymphoma, suspension) |  |  |  |  | 0.666 | 337 µM
43 | DIFI (large intestine, adherent) |  |  |  |  | 0.94 | > 2000 µM
44 | EW-22 (Ewing sarcoma, adherent) |  |  |  |  | 0.946 | > 2000 µM
45 | HCC-366 (non-small cell lung carcinoma, adherent) |  |  |  |  | 0.832 | 1350 µM
46 | IGROV-1 (ovary, adherent) |  |  |  |  | 0.954 | > 2000 µM
47 | JEKO-1 (B-cell lymphoma, suspension) |  |  |  |  | 0.571 | 194 µM
48 | JHOS-4 (ovary, adherent) |  |  |  |  | 0.928 | > 2000 µM
49 | Jurkat (T-cell leukaemia, suspension) |  |  |  |  | 0.989 | > 2000 µM
50 | KARPAS-1106P (B-cell lymphoma, suspension) |  |  |  |  | 0.832 | 978 µM
51 | KATOIII (stomach, semi-adherent) |  |  |  |  | 0.873 | 1650 µM
52 | KNS-62 (lung squamous cell carcinoma, adherent) |  |  |  |  | 0.814 | 1770 µM

Row | Cell Line | AUC [1, 3] | IC50 [1, 3] | AUC [1, 4] | IC50 [1, 4] | AUC [2] | IC50 [2]
53 | MEL-HO (melanoma, adherent) |  |  |  |  | 0.986 | > 2000 µM
54 | MHH-CALL-2 (B-cell leukaemia, suspension) |  |  |  |  | 0.851 | 954 µM
55 | MKN7 (stomach, adherent) |  |  |  |  | 0.885 | > 2000 µM
56 | MM1S (myeloma, suspension) |  |  |  |  | 0.727 | 530 µM
57 | MOLM-16 (acute myeloid leukaemia, suspension) |  |  |  |  | 0.86 | 1350 µM
58 | MOLT-16 (T-cell lymphoblastic leukaemia, suspension) |  |  |  |  | 0.75 | 543 µM
59 | NCC010 (kidney, adherent) |  |  |  |  | 0.95 | > 2000 µM
60 | NCI-H146 (small cell lung carcinoma, suspension) |  |  |  |  | 0.881 | 1370 µM
61 | NCI-H508 (large intestine, semi-adherent) |  |  |  |  | 0.779 | 1510 µM
62 | NCI-H835 (lung carcinoid, suspension) |  |  |  |  | 0.967 | > 2000 µM
63 | NCI-H929 (myeloma, suspension) |  |  |  |  | 0.733 | 508 µM
64 | NCI-H1105 (small cell lung carcinoma, suspension) |  |  |  |  | 0.98 | > 2000 µM
65 | NCI-H1341 (small cell lung carcinoma, suspension) |  |  |  |  | 0.872 | 1440 µM
66 | NCI-N87 (stomach, adherent) |  |  |  |  | 0.833 | > 2000 µM
67 | OCI-LY7 (B-cell lymphoma, suspension) |  |  |  |  | 0.866 | 1000 µM
68 | PWR-1E (prostate, adherent) |  |  |  |  | 0.936 | > 2000 µM
69 | RCH-ACV (B-cell leukaemia, suspension) |  |  |  |  | 0.487 | 116 µM
70 | RH-18 (rhabdomyosarcoma, adherent) |  |  |  |  | 0.9 | > 2000 µM
71 | SK-GT-2 (stomach, adherent) |  |  |  |  | 0.752 | 696 µM
72 | SK-MEL-31 (melanoma, adherent) |  |  |  |  | 0.963 | > 2000 µM
73 | SUP-B8 (B-cell leukaemia, suspension) |  |  |  |  | 0.832 | 1270 µM
74 | TC-YIK (cervix, suspension) |  |  |  |  | 0.708 | 440 µM
75 | U-266 (myeloma, semi-adherent) |  |  |  |  | 0.9 | > 2000 µM
76 | VMRC-LCD (lung adenocarcinoma, adherent) |  |  |  |  | 0.993 | > 2000 µM
77 | ZR-75-30 (breast, adherent) |  |  |  |  | 0.904 | > 2000 µM

The IC50 comes from the fitted curve, where viability falls to half of the control; fits outside the tested doses are given as limits. The AUC spans the tested range (256-fold, ending at the top dose) of the same fit: 1 means no effect, lower means more sensitive. An inferred top dose was derived from the fitted curves, not read from the paper. For part of these data: Where an entry number is given, a second screen of the drug exists; the two often differ.
